In the supplement of paper PMC11417369:
The list shows a part of the results.

The sequences below were run on PF3D7_0420300 AP2 domain 1 (GST-tagged) (assay: gcPBM binding intensity (ln(normalized median fluorescence intensity)); higher = stronger DNA binding).
How it was run: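 GST-tagged P. falciparum DNA-binding domains produced in E. coli were incubated for 1 h on an Agilent 4 × 180k array of primer-extended double-stranded 36-bp intergenic genomic probes with negative controls. Binding intensity is the highest Masliner-normalised natural-log median intensity across replicate spots of either probe orientation, with bound protein detected by Alexa488 anti-GST antibody at 488 nm.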

| Sequence | gcPBM binding intensity (ln) |
| --- | --- |
| TAATAATAATTAAAATGAGATAAATAAATATATATA [TGCATGCA_negctrl_site322] | 9.17 |
| TTATATATTTATAAATGTACGTATAAGAATTTAATT [XGTACX_site8541] | 9.19 |
| CTATTAATGTACTCTACACACATATAAGAGGACATT [CACACA_site471] | 9.46 |
| TAAGTTTGTGCAAGTGGTACATATATATAAATTTAT [XGTACX_site5944] | 9.29 |
| TGATTATAGACACGCGCACACACAACAAAAAAAAAA [CACACA_site9179] | 9.75 |
| TTAGCAACTATTACTACACACATTTGTATTTAATTT [CACACA_site4961] | 9.63 |
| TTTACATAAACTGGTAGTACATAATATGGCTTAAAA [XGTACX_site5002] | 9.23 |
| TGGATTTTTTGATTTTTGTTTTTCTTCTTTCCCCCC [CACACA_negctrl_site1471] | 9.39 |
| ACAGTATAAAAATAAGCACACACACTAATATATATT [CACACA_site8212] | 10.1 |
| TAAAATATATTTTTCTGTACACAAAAATATATTAAA [XGTACX_site2813] | 8.9 |
| TATATATTAATATATGCATGTTAATATATTATGAAA [TGCATGCA_site61] | 9 |
| TAAATATAGGGTAATAGTACATAATTATATTCTTTT [XGTACX_site3883] | 9.21 |
| TTTTTTTTTTTTTAATGTACCCATGGGCACATAGGT [XGTACX_site486] | 8.67 |
| TATATTTATATATTAGTGCACTTTTTGTTAATTTTT | 9.31 |
| AATGGATTAGCTAGCACACACAAAAAAAAAAAAAAA [CACACA_site3031] | 9.19 |
| TACATATTTGTATATGCACACATAAATTTTTCCATT [CACACA_site9148] | 9.46 |
| AAATATTTATACCACACACACATACCTCTATTTGTA [CACACA_site6957] | 9.98 |
| TAAAGGCAAACAAACACACACACATATATACCTATA [CACACA_site7078] | 9.91 |
| ATAACAAAATAAAACACACACACAAATGTACCTATA [CACACA_site7190] | 10.1 |

| Sequence | gcPBM binding intensity (ln) |
| --- | --- |
| TATTTATAAATATAAACACACAACATTATATGCATA [CACACA_site5748] | 9.48 |
| AAAAGTGTATGTAGGTGTACTTTTTATTTCTTCTTT [XGTACX_site8819] | 9.43 |
| TATATATATATATAATGTACGAATAGAAAAAAAAAA [XGTACX_site7231] | 9.42 |
| CAAAATTTATATAATAGTACACATGATCTTTTTTCT [XGTACX_site8956] | 9.26 |
| GATACAAAATGGGGAACACACACATATATATATATA [CACACA_site9278] | 9.82 |
| TATATATATATATATATATATATTAATATATATTAC [XGTACX_negctrl_site103] | 8.89 |
| AAATTAATAAATATTTTTATAAATTATAATATTAAT [GTGCAC_negctrl_site533] | 8.84 |
| TTGGTACCTATAGATACACACATATATACATATATA [CACACA_site3402] | 9.37 |
| TAAGAGTAGTTATATACACACATGTATATTATAGTT [CACACA_site6815] | 9.49 |
| TATATATATATATTATGTACGTATCAGTTTGTATGT [XGTACX_site695] | 9.48 |
| ATTTTTAATATTATTACACACACTAAAAAAAAAAAA [CACACA_site1067] | 9.37 |
| TTATAAATTAGAGGTACACACAAAAAAAAAAAGAAA [CACACA_site6740] | 9.74 |
| CACGACATTAACAATACATGCAGAAAAACAAAAAAT [TGCATGCA_site689] | 9.61 |
| TATAAACTTAATTTGAGTACTTAATAATAATTTTGT [XGTACX_site3730] | 8.96 |
| AATGGGTTAGCACATACACACCAATATATTATATAT [CACACA_site9011] | 9.57 |
| ATTTATGATATGTAAACATGCATAAAAATTTCAAAA [TGCATGCA_site858] | 8.99 |
| TATATATGTATATATGGTACAGAATATTCTACATTA [XGTACX_site5077] | 9.23 |
| CAATCATTTTATTGTTGTACAGTAATTATGAATTCA [XGTACX_site7508] | 9.03 |
| TACCACATCGGTAAATGTACTTATAAAAAAAAAAAA [XGTACX_site3364] | 8.92 |

| Sequence | gcPBM binding intensity (ln) |
| --- | --- |
| CATCCACATATATGTACACACATATATATATATATA [CACACA_site2964] | 9.49 |
| TTTTTTTTTTTTTTTGCACACACATTGAATTATTAT [CACACA_site198] | 9.59 |
| TACATATAAATATATAAATATAAATAAATAAATAAA [XGTACX_negctrl_site180] | 9.25 |
| AAATGGAAAAGGTGTACACAAAAAAAAGGGAAAAGC [CACACA_site5331] | 9.96 |
| CTTTATATATAGTGTACACATTAAACAAATCTCAAT [CACACA_site5845] | 9.17 |
| TTACCAAAAACCTCAAGTACAAAAAATCCCTAATAT [XGTACX_site2313] | 9.37 |
| ATAGTATACAGACACACACACACACGGATATAAATA [CACACA_site6914] | 10.3 |
| ATATATATATATATATGTACTAAATATTCATCCTTA [XGTACX_site6039] | 9.08 |
| AAGTTTAAGAAATAATTCATATTTACTTCCATCCTC [GTGCAC_negctrl_site494] | 9.06 |
| TATAAGAGAAGAAGAAAAAAAAGGTTTCTATAGAAA [XGTACX_negctrl_site421] | 9.17 |
| CATATAGTAATATATACACACACTTGTCTTGTAAAA [CACACA_site8238] | 9.53 |
| AAGAAGCATAAATGTACACACATATTTATATATTAA [CACACA_site1332] | 9.5 |
| ATATTTATAATTTTTTGTACACATTTTTTAAAGATA [XGTACX_site1784] | 9.28 |
| TCTTATAATTTACCTACACACAGGAAATATATAAAT [CACACA_site294] | 9.48 |
| ACACAATGTAGTGTATAAATACAATAAAAGGTTGTA [TGCATGCA_negctrl_site251] | 9.48 |
| TCAGAAATATTACAAAGTACATGCAACGAAAATTTC [XGTACX_site5061] | 9.37 |
| TGATATTTAAATTTTGCACACGCATATGAAATTAGG [CACACA_site1034] | 9.02 |
| ATGACGTAGTGGTGTACACACATGGTACCTTTATTC [CACACA_site1547] | 9.58 |
